Reference: patent publication US12065436B2, “Cardiac sarcomere inhibitors” (Cytokinetics, Inc., priority 2018, dated 2024)
At least one compound was matched to its structure with a doubt left.

Target: bovine cardiac myofibrils (full-length cardiac myosin ATPase in the native sarcomere) (Bos taurus (Bovine), UniProt Q9BE39)
Assay: Skinned bovine cardiac myofibril ATPase assay (PK/LDH-coupled)
Format: biochemical
Conditions: Ca2+ activating to 75% of maximal rate, concentration giving 15% inhibition
Experimental: To evaluate the effect of compounds on the ATPase activity of full-length cardiac myosin in the context of the native sarcomere, skinned myofibril assays were performed. Bovine cardiac myofibrils were obtained by homogenizing bovine cardiac left ventricular tissue in the presence of a detergent such as triton X-100. Such treatment removes membranes and a majority of the soluble cytoplasmic proteins but leaves intact the cardiac sarcomeric acto-myosin apparatus. Myofibril preparations retain the ability to hydrolyze ATP in an Ca^2+ regulated manner. ATPase activities of such myofibril preparations in the presence and absence of compounds were assayed at Ca^2+ concentrations activating to a defined fraction of the maximal rate (i.e., 25%, 75%). Small molecule agents were assessed for their ability to inhibit the steady-state ATPase activity of bovine cardiac myofibrils using pyruvate kinase and lactate dehydrogenase (PK/LDH)-coupled enzyme system. This assay regenerates myosin-produced ADP into ATP by oxidizing NADH, producing an absorbance change at 340 nm. Prior to testing small molecule agents, the bovine cardiac myofibrils were assessed for their calcium responsiveness and the calcium concentration that achieves either a 50% (pCa50) or 75% (pCa75) activation of the myofibril system was chosen as the final condition for assessing the inhibitory activity of the small molecule agents. All enzymatic activity was measured in a buffered solution containing 12 mM PIPES (piperazine-N,N′-bis(2-ethanesulfonic acid), 2 mM magnesium chloride at pH 6.8 (PM 12 buffer). Final assay conditions were 1 mg/mL of bovine cardiac myofibrils, 4 U/mL pyruvate kinase, 6 U/mL lactate dehydrogenase, 50 μM ATP, 0.1 mg/mL BSA (bovine serum albumin), 10 ppm antifoam, 1 mM DTT, 0.5 mM NADH, 1.5 mM PEP, 0.6 mM EGTA, and an amount of CaCl2) sufficient to achieve either 50% or 75% activation of the myofibril ATPase activity.

Chain of bovine cardiac myofibrils (full-length cardiac myosin ATPase in the native sarcomere) (Q9BE39 whole entry): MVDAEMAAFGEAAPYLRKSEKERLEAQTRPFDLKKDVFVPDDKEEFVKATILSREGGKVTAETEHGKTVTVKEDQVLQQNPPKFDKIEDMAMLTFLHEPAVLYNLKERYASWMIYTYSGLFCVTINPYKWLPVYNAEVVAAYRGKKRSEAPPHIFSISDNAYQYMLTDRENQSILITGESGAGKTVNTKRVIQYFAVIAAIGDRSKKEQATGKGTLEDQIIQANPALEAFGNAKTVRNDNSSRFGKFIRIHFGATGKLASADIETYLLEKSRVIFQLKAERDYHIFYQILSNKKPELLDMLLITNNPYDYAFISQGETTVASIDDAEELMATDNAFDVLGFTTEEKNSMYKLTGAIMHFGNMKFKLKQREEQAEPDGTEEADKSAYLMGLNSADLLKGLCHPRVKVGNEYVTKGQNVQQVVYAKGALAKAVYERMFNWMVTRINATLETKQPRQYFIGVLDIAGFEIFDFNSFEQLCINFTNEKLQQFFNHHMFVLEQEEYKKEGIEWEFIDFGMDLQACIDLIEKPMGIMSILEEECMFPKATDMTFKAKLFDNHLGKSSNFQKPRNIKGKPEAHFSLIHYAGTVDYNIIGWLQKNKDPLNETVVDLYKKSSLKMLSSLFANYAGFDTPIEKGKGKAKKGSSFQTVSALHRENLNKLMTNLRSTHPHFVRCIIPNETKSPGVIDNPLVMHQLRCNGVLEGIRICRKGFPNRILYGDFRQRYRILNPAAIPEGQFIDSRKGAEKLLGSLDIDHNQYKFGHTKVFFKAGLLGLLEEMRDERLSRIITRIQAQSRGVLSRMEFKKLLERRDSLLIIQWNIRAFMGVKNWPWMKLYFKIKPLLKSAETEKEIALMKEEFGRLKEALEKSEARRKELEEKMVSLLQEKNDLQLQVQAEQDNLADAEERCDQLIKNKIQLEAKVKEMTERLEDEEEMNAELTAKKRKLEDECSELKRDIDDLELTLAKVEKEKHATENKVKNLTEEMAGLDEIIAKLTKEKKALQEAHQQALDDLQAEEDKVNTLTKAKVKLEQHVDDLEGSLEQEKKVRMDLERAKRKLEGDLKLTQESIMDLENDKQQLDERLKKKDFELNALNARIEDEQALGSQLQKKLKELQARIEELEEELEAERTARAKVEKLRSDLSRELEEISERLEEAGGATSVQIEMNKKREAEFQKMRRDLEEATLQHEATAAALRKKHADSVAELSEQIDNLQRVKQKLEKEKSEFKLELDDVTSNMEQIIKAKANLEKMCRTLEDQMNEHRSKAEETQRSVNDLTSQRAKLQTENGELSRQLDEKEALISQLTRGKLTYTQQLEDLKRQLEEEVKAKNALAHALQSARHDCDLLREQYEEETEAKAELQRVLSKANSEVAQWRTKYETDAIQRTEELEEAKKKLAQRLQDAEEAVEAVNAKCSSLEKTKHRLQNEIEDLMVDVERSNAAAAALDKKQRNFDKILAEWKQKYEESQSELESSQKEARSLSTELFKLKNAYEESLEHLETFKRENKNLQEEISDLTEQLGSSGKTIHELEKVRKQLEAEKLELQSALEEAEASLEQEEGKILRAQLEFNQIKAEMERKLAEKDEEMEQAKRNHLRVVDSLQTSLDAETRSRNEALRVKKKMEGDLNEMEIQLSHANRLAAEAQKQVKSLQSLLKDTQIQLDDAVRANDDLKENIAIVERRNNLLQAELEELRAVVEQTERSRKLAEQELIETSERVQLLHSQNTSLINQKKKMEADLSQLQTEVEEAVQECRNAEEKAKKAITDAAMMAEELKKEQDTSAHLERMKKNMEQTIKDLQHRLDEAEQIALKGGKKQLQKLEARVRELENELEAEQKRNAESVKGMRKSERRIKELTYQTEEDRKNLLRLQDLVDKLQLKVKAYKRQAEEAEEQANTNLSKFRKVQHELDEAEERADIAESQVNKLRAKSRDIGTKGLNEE
Chain of bovine cardiac myofibrils (full-length cardiac myosin ATPase in the native sarcomere) (P85100 whole entry partner): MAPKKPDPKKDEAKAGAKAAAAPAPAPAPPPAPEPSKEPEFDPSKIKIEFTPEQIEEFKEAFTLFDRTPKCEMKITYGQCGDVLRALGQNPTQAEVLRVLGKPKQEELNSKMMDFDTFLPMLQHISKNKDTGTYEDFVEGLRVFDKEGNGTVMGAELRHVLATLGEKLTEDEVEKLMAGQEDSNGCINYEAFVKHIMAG
Chain of bovine cardiac myofibrils (full-length cardiac myosin ATPase in the native sarcomere) (Q3SZE5 whole entry partner): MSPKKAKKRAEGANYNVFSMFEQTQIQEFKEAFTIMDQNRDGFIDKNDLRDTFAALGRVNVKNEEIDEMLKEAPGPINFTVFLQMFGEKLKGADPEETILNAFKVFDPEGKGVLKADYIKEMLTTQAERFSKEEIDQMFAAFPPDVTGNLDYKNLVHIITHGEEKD

Compound | CDMF75 IC15
Cc1cnoc1C(=O)N[C@@H]1CCc2cc(-c3noc(C(F)F)n3)ccc21 [Compound 93, (R)-N-(5-(5-(difluoromethyl)-1,2,4-oxadiazol-3-yl)-2,3-dihydro-1H-inden-1-yl)-4-methylisoxazole-5-carboxamide] | 0.2 µM
Cc1cc(C(=O)NC2CCc3cc(-c4noc(C(F)F)n4)ccc32)on1 (stereo not shown) [Compound 102, N-(5-(5-(difluoromethyl)-1,2,4-oxadiazol-3-yl)-2,3-dihydro-1H-inden-1-yl)-3-methylisoxazole-5-carboxamide] | 1.6 µM
Cc1cnoc1C(=O)NC1CCc2cc(-c3noc(C(F)F)n3)ccc21 (stereo not shown) [Compound 103, N-(5-(5-(difluoromethyl)-1,2,4-oxadiazol-3-yl)-2,3-dihydro-1H-inden-1-yl)-4-methylisoxazole-5-carboxamide] | 0.7 µM
O=C(N[C@@H]1CCc2cc(-c3noc(C4CC4)n3)ccc21)C1CC1 [Compound 318, (R)-N-(5-(5-cyclopropyl-1,2,4-oxadiazol-3-yl)-2,3-dihydro-1H-inden-1-yl)cyclopropanecarboxamide] | 2.2 µM

The next lines start with the values.

CDMF75 IC15 | Compound
4.1 µM | Cc1nc(-c2ccc3c(c2)CCC3NC(=O)Nc2cnccn2)no1 (stereo not shown) [Compound 86, 1-(5-(5-methyl-1,2,4-oxadiazol-3-yl)-2,3-dihydro-1H-inden-1-yl)-3-(pyrazin-2-yl)urea]
0.2 µM | CCc1cc(-c2ccc3c(c2)CC[C@H]3NC(=O)OC)no1 [Compound 345, methyl (R)-(5-(5-ethylisoxazol-3-yl)-2,3-dihydro-1H-inden-1-yl)carbamate]
0.7 µM | Cn1cc(C(=O)N[C@@H]2CCc3cc(-c4noc(C5CCC5)n4)ccc32)cn1 [Compound 411, (R)-N-(5-(5-cyclobutyl-1,2,4-oxadiazol-3-yl)-2,3-dihydro-1H-inden-1-yl)-1-methyl-1H-pyrazole-4-carboxamide]
1.9 µM | CCc1nc(-c2ccc3c(c2)CC[C@H]3NC(=O)c2cnn(C3CN(C(=O)OC(C)(C)C)C3)c2)no1 [Compound 471, tert-butyl (R)-3-(4-((5-(5-ethyl-1,2,4-oxadiazol-3-yl)-2,3-dihydro-1H-inden-1-yl)carbamoyl)-1H-pyrazol-1-yl)azetidine-1-carboxylate]
6.6 µM | CCc1nc(-c2ccc3c(c2)CC[C@H]3NC(=O)c2cnn(C3CN(C(=O)OC)C3)c2)no1 [Compound 480, methyl (R)-3-(4-((5-(5-ethyl-1,2,4-oxadiazol-3-yl)-2,3-dihydro-1H-inden-1-yl)carbamoyl)-1H-pyrazol-1-yl)azetidine-1-carboxylate]
1.5 µM | COCc1nc(-c2ccc3c(c2)CC[C@H]3NC(=O)c2cnc(C)n2C)no1 [Compound 691, (R)-N-(5-(5-(methoxymethyl)-1,2,4-oxadiazol-3-yl)-2,3-dihydro-1H-inden-1-yl)-1,2-dimethyl-1H-imidazole-5-carboxamide]
